Paper PMC9911399, “Two distinct binding modes provide the RNA-binding protein RbFox with extraordinary sequence specificity”
Residue numbers refer to the chain shown, from its start. The list shows a part of the results.

T1: RBFOX1 RRM (Homo sapiens, UniProt Q9NWB1 109-208)
T1 sequence: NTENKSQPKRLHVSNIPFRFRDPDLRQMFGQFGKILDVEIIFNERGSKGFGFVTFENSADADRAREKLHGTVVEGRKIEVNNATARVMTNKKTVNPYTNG

B1: CGCAUAA (DNA:RNA)
RNA: GGGAGACCGGAAUUCAGAUUGUCCCGCAUAAUUAAAUCCCGUCGUAGCCACCA
DNA 1: CAATCTGAATTCCGGTCTCCC
DNA 2: TGGTGGCTACGACGGGATT
B2: ACGCUUG (DNA:RNA)
RNA: B1 RNA with C25A, G26C, C27G, A28C, A30U, A31G
DNA 1: CAATCTGAATTCCGGTCTCCC
DNA 2: TGGTGGCTACGACGGGATT
B3: ACCCGGU (DNA:RNA)
RNA: B1 RNA with C25A, G26C, A28C, U29G, A30G, A31U
DNA 1: CAATCTGAATTCCGGTCTCCC
DNA 2: TGGTGGCTACGACGGGATT
B4: GAUGUGG (DNA:RNA)
RNA: B1 RNA with C25G, G26A, C27U, A28G, A30G, A31G
DNA 1: CAATCTGAATTCCGGTCTCCC
DNA 2: TGGTGGCTACGACGGGATT
B5: GGCGCAU (DNA:RNA)
RNA: B1 RNA with C25G, A28G, U29C, A31U
DNA 1: CAATCTGAATTCCGGTCTCCC
DNA 2: TGGTGGCTACGACGGGATT
B6: UUUGGAU (DNA:RNA)
RNA: B1 RNA with C25U, G26U, C27U, A28G, U29G, A31U
DNA 1: CAATCTGAATTCCGGTCTCCC
DNA 2: TGGTGGCTACGACGGGATT
B7: CUUCACG (DNA:RNA)
RNA: B1 RNA with G26U, C27U, A28C, U29A, A30C, A31G
DNA 1: CAATCTGAATTCCGGTCTCCC
DNA 2: TGGTGGCTACGACGGGATT
B8: ACGAUGU (DNA:RNA)
RNA: B1 RNA with C25A, G26C, C27G, A30G, A31U
DNA 1: CAATCTGAATTCCGGTCTCCC
DNA 2: TGGTGGCTACGACGGGATT
B9: AUGCGGG (DNA:RNA)
RNA: GGGAGACCGGAAUUCAGAUUGUCCAUGCGGGUUAAAUCCCGUCGUAGCCACCA
DNA 1: CAATCTGAATTCCGGTCTCCC
DNA 2: TGGTGGCTACGACGGGATT
B10: UCUCGUU (DNA:RNA)
RNA: B9 RNA with A25U, U26C, G27U, G30U, G31U
DNA 1: CAATCTGAATTCCGGTCTCCC
DNA 2: TGGTGGCTACGACGGGATT
B11: GAACUUG (DNA:RNA)
RNA: B9 RNA with A25G, U26A, G27A, G29U, G30U
DNA 1: CAATCTGAATTCCGGTCTCCC
DNA 2: TGGTGGCTACGACGGGATT
B12: GAGUGCC (DNA:RNA)
RNA: B9 RNA with A25G, U26A, C28U, G30C, G31C
DNA 1: CAATCTGAATTCCGGTCTCCC
DNA 2: TGGTGGCTACGACGGGATT
B13: CAAACCC (DNA:RNA)
RNA: B1 RNA with G26A, C27A, U29C, A30C, A31C
DNA 1: CAATCTGAATTCCGGTCTCCC
DNA 2: TGGTGGCTACGACGGGATT
B14: ACCGUCA (DNA:RNA)
RNA: B1 RNA with C25A, G26C, A28G, A30C
DNA 1: CAATCTGAATTCCGGTCTCCC
DNA 2: TGGTGGCTACGACGGGATT
B15: ACCAAUC (DNA:RNA)
RNA: B1 RNA with C25A, G26C, U29A, A30U, A31C
DNA 1: CAATCTGAATTCCGGTCTCCC
DNA 2: TGGTGGCTACGACGGGATT
B16: AUUUCCA (DNA:RNA)
RNA: B9 RNA with G27U, C28U, G29C, G30C, G31A
DNA 1: CAATCTGAATTCCGGTCTCCC
DNA 2: TGGTGGCTACGACGGGATT
B17: CGAAGAA (DNA:RNA)
RNA: B1 RNA with C27A, U29G
DNA 1: CAATCTGAATTCCGGTCTCCC
DNA 2: TGGTGGCTACGACGGGATT
B18: UUGAACA (DNA:RNA)
RNA: B9 RNA with A25U, C28A, G29A, G30C, G31A
DNA 1: CAATCTGAATTCCGGTCTCCC
DNA 2: TGGTGGCTACGACGGGATT
B19: CCUAAAC (DNA:RNA)
RNA: B1 RNA with G26C, C27U, U29A, A31C
DNA 1: CAATCTGAATTCCGGTCTCCC
DNA 2: TGGTGGCTACGACGGGATT
B20: ACACUAA (DNA:RNA)
RNA: B1 RNA with C25A, G26C, C27A, A28C
DNA 1: CAATCTGAATTCCGGTCTCCC
DNA 2: TGGTGGCTACGACGGGATT
B21: GGCUAGC (DNA:RNA)
RNA: B1 RNA with C25G, A28U, U29A, A30G, A31C
DNA 1: CAATCTGAATTCCGGTCTCCC
DNA 2: TGGTGGCTACGACGGGATT
B22: AUAACGG (DNA:RNA)
RNA: B9 RNA with G27A, C28A, G29C
DNA 1: CAATCTGAATTCCGGTCTCCC
DNA 2: TGGTGGCTACGACGGGATT
B23: UCAUAAA (DNA:RNA)
RNA: B1 RNA with C25U, G26C, C27A, A28U, U29A
DNA 1: CAATCTGAATTCCGGTCTCCC
DNA 2: TGGTGGCTACGACGGGATT
B24: GGGGUGC (DNA:RNA)
RNA: B9 RNA with A25G, U26G, C28G, G29U, G31C
DNA 1: CAATCTGAATTCCGGTCTCCC
DNA 2: TGGTGGCTACGACGGGATT
B25: GGCUUAA (DNA:RNA)
RNA: B1 RNA with C25G, A28U
DNA 1: CAATCTGAATTCCGGTCTCCC
DNA 2: TGGTGGCTACGACGGGATT
B26: AGAGAAC (DNA:RNA)
RNA: B1 RNA with C25A, C27A, A28G, U29A, A31C
DNA 1: CAATCTGAATTCCGGTCTCCC
DNA 2: TGGTGGCTACGACGGGATT
B27: GUUAACG (DNA:RNA)
RNA: B9 RNA with A25G, G27U, C28A, G29A, G30C
DNA 1: CAATCTGAATTCCGGTCTCCC
DNA 2: TGGTGGCTACGACGGGATT
B28: AUCCGGU (DNA:RNA)
RNA: B9 RNA with G27C, G31U
DNA 1: CAATCTGAATTCCGGTCTCCC
DNA 2: TGGTGGCTACGACGGGATT
B29: CUGACAC (DNA:RNA)
RNA: B1 RNA with G26U, C27G, U29C, A31C
DNA 1: CAATCTGAATTCCGGTCTCCC
DNA 2: TGGTGGCTACGACGGGATT
B30: AUUAAAC (DNA:RNA)
RNA: B9 RNA with G27U, C28A, G29A, G30A, G31C
DNA 1: CAATCTGAATTCCGGTCTCCC
DNA 2: TGGTGGCTACGACGGGATT
B31: AGAGUGC (DNA:RNA)
RNA: B9 RNA with U26G, G27A, C28G, G29U, G31C
DNA 1: CAATCTGAATTCCGGTCTCCC
DNA 2: TGGTGGCTACGACGGGATT

molecular target: T1, RBFOX1 RRM; experiment: EMSA; HiTS-Eq, 1 nM pool, 10 min; buffer printed only for the single-RNA assays: 10 mM Tris pH 7.5, 150 mM NaCl, 3.4 mM EDTA, 0.001% NP-40, 30 C; conditions: tags: His6 N-terminal (pET28a); label: 5' 32P
Outline: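 A pool of RNA with 7 randomized nucleotides, 5′-radiolabelled and with DNA-annealed flanks, was equilibrated at 1 nM for 10 min in 50 µL with purified RbFox RRM, wild type or mutant, across increasing protein concentrations. Free RNA was separated by 8% native PAGE, excised, reverse-transcribed, barcoded by PCR and sequenced. Relative association constants were obtained from read-count changes of each RNA species versus the control reaction and normalised to the cognate motif.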

Binder	binding signal
B1	0.00512 KA relative to UGCAUGU
B2	0.0291 KA relative to UGCAUGU
B3	0.00743 KA relative to UGCAUGU
B4	0.0172 KA relative to UGCAUGU
B5	0.0148 KA relative to UGCAUGU
B6	0.007 KA relative to UGCAUGU
B7	0.00646 KA relative to UGCAUGU
B8	0.00996 KA relative to UGCAUGU
B9	0.0119 KA relative to UGCAUGU
B10	0.00869 KA relative to UGCAUGU
B11	0.0137 KA relative to UGCAUGU
B12	0.0148 KA relative to UGCAUGU
B13	0.000305 KA relative to UGCAUGU
B14	0.000905 KA relative to UGCAUGU
B15	0.000341 KA relative to UGCAUGU
B16	0.000627 KA relative to UGCAUGU

Binder	binding signal
B17	0.007 KA relative to UGCAUGU
B18	0.00639 KA relative to UGCAUGU
B19	0.0015 KA relative to UGCAUGU
B20	0.00225 KA relative to UGCAUGU
B21	0.0184 KA relative to UGCAUGU
B22	0.00478 KA relative to UGCAUGU
B23	0.000782 KA relative to UGCAUGU
B24	0.0467 KA relative to UGCAUGU
B25	0.00543 KA relative to UGCAUGU
B26	0.00579 KA relative to UGCAUGU
B27	0.0101 KA relative to UGCAUGU
B28	0.00957 KA relative to UGCAUGU
B29	0.00724 KA relative to UGCAUGU
B30	0.0009 KA relative to UGCAUGU
B31	0.0185 KA relative to UGCAUGU
